# Experimental data taken from the supplement of paper PMC11417369.
# The other results are listed elsewhere or left out.
# Tested on: PfHDP1 homeodomain (GST-tagged)
# Experiment: gcPBM binding intensity (ln(normalized median fluorescence intensity)); higher = stronger DNA binding
# In short: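 An Agilent 4 × 180k array of primer-extended double-stranded 36-bp intergenic genomic probes, with negative controls, was incubated for 1 h with GST-tagged P. falciparum DNA-binding domains expressed in E. coli. Alexa488 anti-GST antibody detected bound protein, scanned at 488 nm. Binding intensity is the highest Masliner-normalised natural-log median intensity across replicate spots of either probe orientation.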
row,Sequence,gcPBM binding intensity (ln)
1,AGTAATAATCGGCATGCATGTCAGTGGTAGTATATA [TGCATGCA_site312],6.84
2,ATGTCAAGAACTGAACGTACAAACTTTGTAATATTG [XGTACX_site8754],6.43
3,TCTAATAATAAATACACACACATATATATTTATATA [CACACA_site5169],6.47
4,TTTTTTTTTGAAAAAAGTACTTAATTTTTAAGAAGA [XGTACX_site3591],5.94
5,TTTATATATTAATATGCACACACAAGAAGTAATTAT [CACACA_site9045],9.97
6,AATAATAACATACAGACACACACGTAAAAGCACGTG [CACACA_site253],6.66
7,ATATATACGTATGAATGTATATTTGTTTGAATTTTT [CACACA_negctrl_site524],6.18
8,AATGGGTAAACATACACACACACATATATATATATA [CACACA_site1991],9.19
9,TATATATATTAAAAAGTGCATTATTCATATTATATA [GTGCAC_site9400],8.25
10,TTACAATTTAATATATGTACATATTTGTGATTTATC [XGTACX_site2911],6.37
11,TATAATGTTAAATAATGTACATATATTTTTTTTTTT [XGTACX_site4722],6.29
12,AAAATATCTTGTTACTGTACAAATATAAATAAATAC [XGTACX_site3684],6.44
13,TTTATTAATAATTATACACACATATAAAATGAATAA [CACACA_site1359],6.33
14,GGAATATTAAAAAAATGTACAAAAAATAATATCCAT [XGTACX_site2596],6.88
15,TATTAATATTTTTGTTGTACTTAAAAATGATGGTAG [XGTACX_site3501],6.5
16,CATATACACGAACACACACACATATAAATAAATATA [CACACA_site6379],7.23
17,TATTATTTTAATTATTCACACATTATTATAAAAATT [CACACA_site5538],6.26
18,TTATGTCATAAATGCACACATATACATTGTTTTGAT [CACACA_site646],10.4
19,TCTTTAACAAGTTAAACACACATACATAAATACATA [CACACA_site5406],6.54

row,Sequence,gcPBM binding intensity (ln)
1,GGGAAAATATTTGGGTGTACAAACAAATTAGCTAGC [XGTACX_site6795],6.75
2,TATGATTTCACATAATGTACTTGCTAATTCGTGAAT [XGTACX_site1408],5.94
3,ATATAAATAAACAGGTGTACTATAATGTTCATAGTA [XGTACX_site1553],6.41
4,AAGAAAATATAAAATGCACACTATAAATTGTATTTA [CACACA_site4257],9.23
5,TAATTATATATATATGCATGTTATAATTTTTATTTT [TGCATGCA_site78],6.16
6,CAAAAAATTTGACGTAGTACTTAAAAAAAAAAAAAA [XGTACX_site4523],6.43
7,ATTTGCTCACAAGAAGCACACAAAAAAAGAAAAAAA [CACACA_site9338],7.34
8,TATTTGCTACATATATGTACTAAAAACTTTTTGCTT [XGTACX_site2362],7.17
9,TATTATAAAAATATTCAGATACATTAACTTACTTTT [XGTACX_negctrl_site4],5.83
10,TGTGTGTGTTCATGGGTGCTTTAATACTATTATAGG [GTGCAC_site9465],7.19
11,TATCAATTTTTCTGGCTATCCAATTAGGGGAAGCCA [CACACA_negctrl_site1045],5.47
12,GAAAATGAAATCCTTGCATGTAAAATTAAAATAGAA [TGCATGCA_site569],6.29
13,TTTTTTTCTTAAAGATGTACTTTTTAAAAATAATCT [XGTACX_site1429],6.18
14,GTAGTAATAAATTAAAGTACAGAATATATTATACTA [XGTACX_site2809],6.4
15,ATGAATTATAAATATTCACACAATATTTTTCATATG [CACACA_site4484],6.38
16,AGTGTGCTCAGCTTAGCACAAATTGGAATACCATGT [CACACA_negctrl_site367],8.85
17,TTTACAGGAAAAAATACACACATTATTTTACCTTAT [CACACA_site2833],6.46
18,ACATGCCAAAATCTAATACAATAATAATAAAAAAAA [XGTACX_negctrl_site160],6.32
19,CAATAAAAATTAAAATGTACAAATAAATATAAATAT [XGTACX_site7265],6.36

row,Sequence,gcPBM binding intensity (ln)
1,ACAAAACTTTTAAGAACACACAAAAATGTACTATCG [CACACA_site7245],6.17
2,CATTTACATGCCAACATGCACTGAACAATCTTTATA [GTGCAC_site9797],7.98
3,TACAAAAAAAAATAAAATACATATATATATATATAT [XGTACX_negctrl_site608],9.32
4,CCCTATATAAATAGCTGTACATTTGAACATGTTCAG [XGTACX_site2187],6.52
5,TTTTATGAATAATTATGTACATAACAAATGATATAT [XGTACX_site8318],6.84
6,TAAAGTTATATATTATGTACATATTTGTATACATTT [XGTACX_site2516],6.46
7,TTTTTTTATACAATTTTATATATTAAATATTATAAT [CACACA_negctrl_site226],6.46
8,AAAGAAAACGGACTTTGTACTTAAATATAATATAAA [XGTACX_site8585],6.47
9,CAATAAATCGAAATCGTGCACGGACACATGCAGTAG,10.9
10,ATATATATAATAAGTGGTACAAGTTATTCATTAAAT [XGTACX_site7063],6.72
11,GGTTCATTTATATGGAGTACAAAAAATATGTATATA [XGTACX_site8209],6.59
12,AAATAATATAAATACACACACACATATATAAATACA [CACACA_site4465],7.06
13,TTATGTGATTTTAATTGTACATAAATATTTGTTAAC [XGTACX_site3489],6.71
14,TATATACTCAGACATACACACAAATAAAAAAACACC [CACACA_site5820],7.58
15,CACGCATACAGACACACACACACACGGATATAAATA [CACACA_site6445],7.12
16,AAATATAGTATTAAAACACACATTTATATAAAAAGG [CACACA_site1482],6.51
17,AACAAAAAAACAAACACACACACACGCATATTTATA [CACACA_site7680],6.71
18,TGAACTCATAGGAAAACACACATATGTGTAATATAT [CACACA_site4267],7.27
